# Paper PMC4336329 (PLoS ONE, 2015)
# The campaign covered roughly 310,000 compounds. About 2,200 (0.71%) showed an effect of 50% or more. Effects have a minus sign here. The list shows a part of the results.
# Molecular target: human ether-à-go-go-related gene (hERG) potassium channel (human, UniProt Q12809)
# Assay: primary screen, population patch clamp on CHO cells stably expressing hERG
# Sequence of human ether-à-go-go-related gene (hERG) potassium channel (Q12809 whole entry, looked up): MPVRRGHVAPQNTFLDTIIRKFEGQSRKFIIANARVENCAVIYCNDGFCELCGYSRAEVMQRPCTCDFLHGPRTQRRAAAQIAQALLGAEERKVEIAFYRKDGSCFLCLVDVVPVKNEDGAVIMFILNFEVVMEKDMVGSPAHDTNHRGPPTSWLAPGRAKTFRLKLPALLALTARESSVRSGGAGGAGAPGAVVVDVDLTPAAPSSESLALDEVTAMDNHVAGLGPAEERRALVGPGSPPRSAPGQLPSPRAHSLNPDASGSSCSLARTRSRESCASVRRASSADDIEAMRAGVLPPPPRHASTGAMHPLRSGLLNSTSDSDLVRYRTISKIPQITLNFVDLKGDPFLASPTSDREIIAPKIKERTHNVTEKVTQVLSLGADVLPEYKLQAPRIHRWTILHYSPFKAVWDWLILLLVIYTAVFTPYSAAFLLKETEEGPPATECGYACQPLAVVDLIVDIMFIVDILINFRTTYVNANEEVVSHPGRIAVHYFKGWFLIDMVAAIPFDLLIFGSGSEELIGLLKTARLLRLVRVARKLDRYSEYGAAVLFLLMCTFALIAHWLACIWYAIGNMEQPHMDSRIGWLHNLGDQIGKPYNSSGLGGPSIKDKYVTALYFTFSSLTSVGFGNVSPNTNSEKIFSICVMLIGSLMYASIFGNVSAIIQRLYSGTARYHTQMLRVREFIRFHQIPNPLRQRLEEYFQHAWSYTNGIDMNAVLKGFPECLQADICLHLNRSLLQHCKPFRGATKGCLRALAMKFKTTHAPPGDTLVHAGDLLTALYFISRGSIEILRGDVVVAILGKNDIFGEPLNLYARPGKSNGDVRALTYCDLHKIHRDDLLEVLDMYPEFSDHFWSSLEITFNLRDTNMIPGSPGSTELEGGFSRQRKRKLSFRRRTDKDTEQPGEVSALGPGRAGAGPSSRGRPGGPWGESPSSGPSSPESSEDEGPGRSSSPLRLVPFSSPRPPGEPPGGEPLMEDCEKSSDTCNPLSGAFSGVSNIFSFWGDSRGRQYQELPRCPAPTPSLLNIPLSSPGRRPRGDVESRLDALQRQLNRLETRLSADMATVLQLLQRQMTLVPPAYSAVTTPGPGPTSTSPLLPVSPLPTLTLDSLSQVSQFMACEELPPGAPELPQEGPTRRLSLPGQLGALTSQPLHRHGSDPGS
row,Compound,"hERG current change (%, negative = inhibition) at 1uM [%]"
1,S=c1nc(-c2ccccc2)[nH]c2ccccc12,11.5
2,CCCCOc1ccc(/C=C/C(=O)N(CC)CC(=O)Nc2ccc3c(c2)OCCO3)cc1OC,1.75
3,COc1ccc(-c2oc3cccnc3c2/C=C/c2ccc(OC)c(OC)c2)cc1,14.9
4,Cc1nc([N+](=O)[O-])cn1CC(=O)Nc1ccc(F)c(Cl)c1,19.9
5,CCOc1ccc(NC(=O)Nc2nc3ccc(S(C)(=O)=O)cc3s2)cc1,12
6,Cc1cccn2c(=O)c(C=O)c(N3CCCCCC3)nc12,0.0965
7,COC(=O)c1ccc(S(=O)(=O)NC(C)(C)C)n1C,20.5
8,COc1ccc(C(=O)NC=C2C(=O)OC(C)(C)OC2=O)cc1,6.6
9,CC1CCCCC1NC(=O)CCn1c(=O)sc2ccccc21 (stereo not shown),18
10,COc1ccc(-n2c(Cc3cc(=O)[nH]c(=O)[nH]3)nnc2SCC(=O)N2CCC(C)CC2)cc1,6.65
11,S=C(c1ccc[nH]1)N1CCOCC1,17.6
12,O=C(Nc1ccccc1)c1ccc(Cn2cc(C(F)(F)F)ccc2=O)cc1,0.918
13,CCOc1ccccc1NC(=O)c1ccc(S(=O)(=O)N(C)C)cc1,-9.19
14,COc1ccc(Nc2nc(N3CCN(S(=O)(=O)N(C)C)CC3)nc3ccccc23)cc1,3.21
15,COc1ccc(N(Cc2ccccc2)S(=O)(=O)c2cccc(C(=O)O)c2)cc1,9.52
16,N=c1oc2ccc3ccccc3c2cc1C(N)=S,14.6
17,CSc1ccccc1OCc1cc(C(=O)NCc2cccc(C)n2)no1,11.9
18,CC(=O)Nc1ccc(SCc2csc(C)n2)cc1,12.4
19,CN(C)c1ccc(/C=N/NC(=O)Cn2nnc3ccccc32)cc1,3.83
20,CC1(C)NC(=O)N(CC(O)COc2ccc(N3C(=O)c4ccccc4C3=O)cc2)C1=O (stereo not shown),6.05
21,CC(=O)Nc1cccc(NC(=O)C2C3C=CC(C3)C2C(=O)O)c1 (stereo not shown),7.91
22,O=C(NC1CCN(S(=O)(=O)c2ccccc2F)CC1)c1ccco1,5.85
23,CCCn1c(N)c(Sc2ccc([N+](=O)[O-])cc2)c(=O)n(CCC)c1=O,-26.4
24,O=C(NC1CCN(C(=S)NCCc2ccccc2)CC1)C1CC1,9.63
25,O=C(Nc1nnc(SCCC2OCCO2)s1)C1CC(=O)N(c2ccccc2)C1 (stereo not shown),-31.5
